Experimental data as given in PubChem BioAssay AID686970 (National Center for Advancing Translational Sciences (NCATS), 2013).
The whole screen tested about 360,000 compounds, of which about 6,000 (1.7%) were called active. Inconclusive means that the source gave no clear call. Such entries were picked first, then a sample of the others. Calls follow the shape of the dose curve; as a rule, active = well fitted cell-killing curve with a large enough effect; inconclusive = small, poorly fitted or top-dose-only effect, or effect the other way; inactive = flat fitted curve, though single readings scatter. Potencies of inconclusive entries are left out as doubtful fits.
Potency is read from the fitted curve at half-maximal effect; tags tell the direction and shape of the fitted curve.

Assay: qHTS for induction of synthetic lethality in tumor cells producing 2HG: qHTS for the HT-1080-NT fibrosarcoma cell line;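 also: NT is the 2HG producing partner of a matched IDH1 knockdown line; nearly all actives have a fitted effect of over 55% in size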;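 as to activity, negative = less viability: 0% = DMSO-treated cells and -100% = media-only wells without cells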
Conditions: HT-1080-NT fibrosarcoma viability, CellTiter-Glo ATP luminescence, 48 h; activity, negative = less viability: at 46.1 µM (top of the series) unless noted
How it was run: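 Viability by CellTiter-Glo luminescence after 48 h compound exposure at 37C of HT-1080-NT cells (750/well, RPMI, 5% FBS). % activity scaled between DMSO wells and medium-only wells, then curve-fitted and categorized by curve class.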
In the case of `O=C(NCCc1ccc(Cl)cc1)c1cccc(NC2=NC3CS(=O)(=O)CC3S2)c1` (centres undefined), the “activity, negative = less viability” value was inactive: 13.5%.
In the case of `NS(=O)(=O)c1ccc(CCNC(=O)c2cc(-c3ccccn3)nc3ccc(Br)cc23)cc1`, the Potency was inconclusive [cytotoxic, partial curve].
In the case of `Cc1cc(=O)n2cn[nH]c2n1`, the “activity, negative = less viability” value was inactive: 6.65%.
With `N/C(=N\OC(=O)c1ccc(Cl)c([N+](=O)[O-])c1)c1ccccn1` the Potency was inconclusive [cytotoxic, single point].
In the case of `COc1ccc(NC(=O)c2nn(C)cc2[N+](=O)[O-])cc1`, the “activity, negative = less viability” value was inactive: -22.8%.
In the case of `CCN(CC)CCNC(=O)c1[nH]c2ccc(OCc3ccccc3)cc2c1C`, the Potency was inconclusive [cytotoxic, single point].
For `CCOc1ccc(S(=O)(=O)n2cc(-c3ccccc3)c(N)n2)cc1`, the activity, negative = less viability was inactive: -13.5% [at 9.24 µM].
In the case of `CCCN(CCC)C(=O)CC(c1ccccc1)c1cc(C)ccc1O` (centres undefined), the Potency was inconclusive [cytotoxic, single point].
For `CCn1c(=O)cc(SCC(=O)Nc2ccc(OC)c(OC)c2)c2ccccc21`, the “activity, negative = less viability” value was inactive: -5.78%.
In the case of `CN(C)c1ccc(/C=C2\N=C(c3ccc(Cl)c([N+](=O)[O-])c3)NC2=O)cc1`, the “activity, negative = less viability” value was inactive: -0.522%.
For `CC(C)C1Cc2c(sc3[nH]c(=S)n(Cc4ccccc4)c(=O)c23)CO1` (centres undefined), the Potency was inconclusive [cytotoxic, partial curve].
For `COc1ccc(NC(=O)C2(C)Cc3c(-c4ccc(NC(C)=O)cc4)ccnc3O2)cn1` (centres undefined), the Potency was inconclusive [cytotoxic, single point].
In the case of `O=C1CC(N(O)C2CC(=O)N(Cc3ccccc3)C2=O)C(=O)N1Cc1ccccc1` (centres undefined), the “activity, negative = less viability” value was inactive: 0.478%.
For `Cc1nc([N+](=O)[O-])c(Br)n1Cc1ccccc1`, the Potency was inconclusive [cytotoxic, single point].
With `COc1cccc(C(C)(O)c2nc(-c3cc(F)cc(F)c3)cs2)c1` (centres undefined) the Potency was active: 23.1 µM.
In the case of `CCN(CC)C(=O)c1oc2ccc(S(=O)(=O)N3CCCCCC3)cc2c1C`, the activity, negative = less viability was inconclusive: -31.3% [cytotoxic].
In the case of `CN1CCN(C2=C(Cl)C(=O)N(c3ccc(Cl)cc3)C2=O)CC1`, the Potency was inconclusive [cytotoxic, single point].
With `Cc1ccc(C(=O)CSc2nnc(COc3cccc4cccnc34)o2)cc1` the Potency was inconclusive [cytotoxic, single point].
For `CCC(C)(C)n1nnnc1CN1CCN(C(c2ccccc2)c2ccccc2)CC1`, the Potency was inconclusive [cytotoxic, single point].
With `C/C(=N\NC(=O)c1ccco1)c1ccc(-c2ccccc2)cc1` the activity, negative = less viability was inconclusive: 12.3%.
In the case of `CNC(=S)N=Nc1c(O)[nH]c2ccc(C(C)C)cc12`, the “activity, negative = less viability” value was inactive: 1.44%.
With `Fc1ccc(CNn2cnnc2SCc2ccc(F)cc2)cc1` the “activity, negative = less viability” value was inactive: -23.6%.
For `COc1cccc(-c2csc(N3CCN(CC(=O)NNC(=O)c4ccc(Br)cc4)CC3)n2)c1`, the Potency was inconclusive [cytotoxic, single point].
For `Cc1cc(C(=O)CCl)c(C)n1-c1c(C)n(C)n(-c2ccccc2)c1=O`, the Potency was active: 23.1 µM.
In the case of `COc1cccc(C(C)(O)c2nc(-c3ccc(F)c(Cl)c3)cs2)c1` (centres undefined), the Potency was inconclusive [cytotoxic, single point].
In the case of `CCCCCc1c(-c2ccc(F)cc2)ncn1CCc1ccccc1OC`, the Potency was inconclusive [cytotoxic, single point].
For `C=C1CC[C@@H]2[C@](C)(CO)[C@H](O)CC[C@@]2(C)[C@@H]1C/C=C1/C(=O)OCC1O` (some centres undefined), the Potency was inconclusive [cytotoxic, single point].
With `CC(=O)N1CCN(c2ccc(S(=O)(=O)N3CCCCC3)cc2[N+](=O)[O-])CC1` the “activity, negative = less viability” value was inactive: -3.4%.
In the case of `O=C(CC1(O)C(=O)N(Cc2cccc3ccccc23)c2ccccc21)c1cccnc1` (centres undefined), the Potency was inconclusive [cytotoxic, single point].
For `O=C1OC(c2ccccc2)(c2ccc(O)cc2)c2ccccc21` (centres undefined), the Potency was active: 20.6 µM.
For `N#Cc1c(NC(=O)CCCl)sc2c1CCCCC2`, the Potency was active: 23.1 µM.
For `O=c1ccsn1Cc1ccccc1`, the Potency was inconclusive [cytotoxic, single point].
In the case of `Oc1ccc(C[C@H]2CNC(=S)N2C[C@H]2CCCN2C[C@H](Cc2ccccc2)N2C[C@H](Cc3ccc(O)cc3)N(CC3CCCCCC3)C2=S)cc1`, the Potency was active: 29.1 µM.
For `COC(=O)c1cccc(NC(=S)NCc2ccco2)c1`, the “activity, negative = less viability” value was inactive: 12.1%.
With `Cn1nc(C(=O)NCc2ccc(F)cc2)cc1C(=O)NCc1ccc(F)cc1` the Potency was inconclusive [cytotoxic, full curve, poor fit].
In the case of `Cc1c([N+](=O)[O-])cc(C(=O)Nc2ccc(Cc3ccncc3)cc2)cc1[N+](=O)[O-]`, the “activity, negative = less viability” value was inactive: -2.86%.
With `CCOC(=O)C1=CN(Cc2cccc(F)c2)S(=O)(=O)NC1c1ccc(F)c(Cl)c1` (centres undefined) the Potency was active: 25.9 µM.
For `C=CCn1c(-c2csc3ccccc23)n[nH]c1=S`, the Potency was inconclusive [cytotoxic, single point].
In the case of `CCCCCCN1CCN(C2CN(Cc3cn(Cc4cccc(Cl)c4)nn3)S(=O)(=O)C2)CC1` (centres undefined), the Potency was inconclusive [cytotoxic, single point].
With `CN(C)CCCNC(=O)C[C@H]1C[C@H](C(=O)N2CCOCC2)[C@@]2(CCC3CCCC3)c3[nH]c4cc(-c5ccco5)ccc4c3CCN2C1=O` the Potency was inconclusive [cytotoxic, partial curve].
For `CN(Cc1ccc(Cl)cc1)C(CCc1ccccc1)C(=O)NC1CCCCC1` (centres undefined), the Potency was inconclusive [cytotoxic, partial curve, poor fit].
In the case of `CC(=O)Nc1nc(C)c(-c2csc(Nc3ccc(O)cc3)n2)s1`, the Potency was inconclusive [cytotoxic, partial curve].
For `CCc1ccc([C@@H]2C[C@H]3CN(Cc4ccccc4OC)C(=O)[C@]34CCCN24)cc1`, the Potency was inconclusive [cytotoxic, partial curve].
With `Cc1ccc(C)c(NC2=C(Cl)C(=O)OC2OC(=O)c2ccco2)c1` (centres undefined) the Potency was inconclusive [cytotoxic, single point].
